{"source": "the supplement of paper PMC3334620", "note": "The full ranking holds about 33,000 sequences; the median of “E-score (-0.5 to 0.5)” is about -0.021, and the highest 2% start at about 0.32. The list shows a part of the results."}
{"target": "T1, Zap1 (UniProt P47043)", "T1 sequence": "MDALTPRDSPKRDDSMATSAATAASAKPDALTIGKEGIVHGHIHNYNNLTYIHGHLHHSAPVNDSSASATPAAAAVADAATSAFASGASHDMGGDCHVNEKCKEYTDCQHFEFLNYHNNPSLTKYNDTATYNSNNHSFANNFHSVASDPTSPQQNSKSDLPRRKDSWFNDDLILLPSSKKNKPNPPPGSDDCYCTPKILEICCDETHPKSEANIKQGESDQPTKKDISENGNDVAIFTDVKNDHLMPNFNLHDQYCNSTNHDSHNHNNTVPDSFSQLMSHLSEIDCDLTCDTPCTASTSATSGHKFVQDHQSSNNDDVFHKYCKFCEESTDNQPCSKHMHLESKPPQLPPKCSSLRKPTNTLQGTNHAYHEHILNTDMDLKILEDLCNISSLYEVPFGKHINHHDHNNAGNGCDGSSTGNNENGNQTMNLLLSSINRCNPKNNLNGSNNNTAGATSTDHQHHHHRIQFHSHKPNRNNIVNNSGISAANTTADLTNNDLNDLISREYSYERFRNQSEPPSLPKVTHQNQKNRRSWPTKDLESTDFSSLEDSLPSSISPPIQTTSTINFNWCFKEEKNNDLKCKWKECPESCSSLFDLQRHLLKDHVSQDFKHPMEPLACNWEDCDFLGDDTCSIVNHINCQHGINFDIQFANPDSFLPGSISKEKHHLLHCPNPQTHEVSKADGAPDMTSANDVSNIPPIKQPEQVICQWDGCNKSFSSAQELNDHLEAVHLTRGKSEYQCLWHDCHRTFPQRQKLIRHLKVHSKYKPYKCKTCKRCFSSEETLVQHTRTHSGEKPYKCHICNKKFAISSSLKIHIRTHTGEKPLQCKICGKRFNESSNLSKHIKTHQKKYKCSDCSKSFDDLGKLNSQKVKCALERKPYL", "assay": "PBM E-score (8-mer binding enrichment) (E-score (-0.5 to 0.5)); higher = stronger / more preferred TF binding; most listed sequences are background and not binding sites", "conditions": "protein concentration: 200 nM; construct: GST-full length", "method": "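Universal 'all 10-mer' protein binding microarrays (Agilent AMADID 015681) probed with GST-tagged S. cerevisiae TFs (full-length or DBD) made by in vitro transcription/translation (PURExpress), about 100-200 nM. Bound TF was detected with fluorescent anti-GST. Each ungapped 8-mer (which stands for itself and its reverse complement) is scored by the PBM enrichment score (E-score), a modified Wilcoxon-Mann-Whitney statistic from -0.5 to +0.5, computed with the Universal PBM Analysis Suite. Scale: above 0.35 generally sequence-specific binding.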"}
{"sequence": "GCTGTTGA", "PBM E-score": -0.0944}
{"sequence": "CCCTAATA", "PBM E-score": 0.161}
{"sequence": "GCATTCAA", "PBM E-score": 0.0999}
{"sequence": "ACGATGAG", "PBM E-score": -0.0399}
{"sequence": "GTGTGCAA", "PBM E-score": -0.0914}
{"sequence": "CCACCCCA", "PBM E-score": -0.0125}
{"sequence": "ATATTACG", "PBM E-score": 0.099}
{"sequence": "CGGACGCA", "PBM E-score": -0.2}
{"sequence": "CATAAGTA", "PBM E-score": -0.0817}
{"sequence": "ACACACCT", "PBM E-score": 0.073}
{"sequence": "CGACCGCG", "PBM E-score": 0.163}
{"sequence": "CGCCTGAG", "PBM E-score": -0.0453}
{"sequence": "GAAATAAA", "PBM E-score": 0.0984}
{"sequence": "AATGGTAA", "PBM E-score": 0.314}
{"sequence": "CAAACTGA", "PBM E-score": -0.0548}
{"sequence": "ATGGGACA", "PBM E-score": 0.0433}
{"sequence": "GCACGGCC", "PBM E-score": -0.0439}
{"sequence": "ACATTAGC", "PBM E-score": -0.111}
{"sequence": "ACTATGAT", "PBM E-score": -0.00467}
{"sequence": "ACTTACTC", "PBM E-score": -0.185}
{"sequence": "CATTAGAA", "PBM E-score": 0.0779}
{"sequence": "CGCCCGTA", "PBM E-score": -0.335}
{"sequence": "CGCCTCGC", "PBM E-score": -0.226}
{"sequence": "ACCACGAG", "PBM E-score": 0.102}
{"sequence": "AGCTTGTC", "PBM E-score": -0.00284}
{"sequence": "AATGATCG", "PBM E-score": -0.145}
{"sequence": "ATTTATAG", "PBM E-score": 0.0889}
{"sequence": "ATCAAATC", "PBM E-score": 0.0253}
{"sequence": "CAGGACAG", "PBM E-score": -0.0195}
{"sequence": "CCGATTAC", "PBM E-score": -0.0754}
{"sequence": "AATTGAGA", "PBM E-score": 0.109}
{"sequence": "GAGGCCAA", "PBM E-score": -0.0454}
{"sequence": "TACCACTA", "PBM E-score": 0.179}
{"sequence": "AAGAAACA", "PBM E-score": 0.153}
{"sequence": "GGGCACCC", "PBM E-score": 0.0588}
{"sequence": "ACCAGTAT", "PBM E-score": 0.0851}
{"sequence": "GTAGACCA", "PBM E-score": -0.0109}
{"sequence": "AATATCGT", "PBM E-score": 0.0379}
{"sequence": "TGCTAACA", "PBM E-score": -0.0987}
{"sequence": "ATTGGATA", "PBM E-score": 0.117}
{"sequence": "CGTTTCAA", "PBM E-score": 0.107}
{"sequence": "ACCTGGCA", "PBM E-score": -0.0855}
{"sequence": "ATCTTATG", "PBM E-score": -0.00019}
{"sequence": "ACTGGGTA", "PBM E-score": 0.18}
{"sequence": "AAATTTCA", "PBM E-score": 0.0746}
{"sequence": "AGGGCAGG", "PBM E-score": -0.0942}
{"sequence": "CGGGAGGA", "PBM E-score": -0.0827}
{"sequence": "GATGGCGA", "PBM E-score": -0.0942}
{"sequence": "AGAATACA", "PBM E-score": 0.0411}
{"sequence": "AACGAGCG", "PBM E-score": -0.0754}
{"sequence": "AAGTCGCG", "PBM E-score": 0.0253}
{"sequence": "ATTCTGCG", "PBM E-score": -0.00266}
{"sequence": "GATGCTCA", "PBM E-score": -0.071}
{"sequence": "AATCTGGC", "PBM E-score": -0.121}
{"sequence": "GGACAGTA", "PBM E-score": 0.0583}
{"sequence": "CTGCTTTA", "PBM E-score": 0.195}
{"sequence": "CACCTGAA", "PBM E-score": 0.138}
{"sequence": "CACCTATC", "PBM E-score": -0.0885}
{"sequence": "TCGGTTCA", "PBM E-score": 0.0449}
{"sequence": "CTACCGGA", "PBM E-score": 0.0256}
{"sequence": "TAAAATAA", "PBM E-score": 0.116}
{"sequence": "CGGACTTC", "PBM E-score": -0.17}
{"sequence": "GCTCGACC", "PBM E-score": -0.099}
{"sequence": "ACAGTAAT", "PBM E-score": 0.0768}
{"sequence": "CTGGTGCC", "PBM E-score": -0.169}
{"sequence": "ATACCATA", "PBM E-score": 0.231}
{"sequence": "CGTTGAGC", "PBM E-score": -0.241}
{"sequence": "ACGCCCGT", "PBM E-score": -0.172}
{"sequence": "TGGACGAA", "PBM E-score": 0.0932}
{"sequence": "CATTAAGG", "PBM E-score": 0.175}
{"sequence": "AGCTATGG", "PBM E-score": -0.00599}
{"sequence": "CGACACCG", "PBM E-score": -0.0288}
{"sequence": "AAATAACT", "PBM E-score": 0.279}
{"sequence": "ATCTGTAC", "PBM E-score": -0.0911}
{"sequence": "CATGAAAC", "PBM E-score": 0.0838}
{"sequence": "ACGGCGAA", "PBM E-score": 0.001}
{"sequence": "TACGTCCA", "PBM E-score": -0.00299}
{"sequence": "GTCGACGA", "PBM E-score": -0.123}
{"sequence": "CCCTGGTA", "PBM E-score": 0.185}
{"sequence": "GAAAGGCA", "PBM E-score": -0.107}
{"sequence": "CAACCTAA", "PBM E-score": 0.203}
{"sequence": "GGAGTGGA", "PBM E-score": -0.414}
{"sequence": "CTAGCGTC", "PBM E-score": -0.153}
{"sequence": "ACTGTATA", "PBM E-score": 0.206}
{"sequence": "ATGAACGG", "PBM E-score": -0.164}
{"sequence": "AGTGATCG", "PBM E-score": -0.0957}
{"sequence": "ACCTCAAC", "PBM E-score": 0.21}
{"sequence": "CCATCAGA", "PBM E-score": -0.172}
{"sequence": "CAAAGAAC", "PBM E-score": 0.231}
{"sequence": "GTATAGAA", "PBM E-score": 0.121}
{"sequence": "AGGATCAC", "PBM E-score": 0.0829}
{"sequence": "CCCTCAAG", "PBM E-score": 0.135}
{"sequence": "CTGACGTA", "PBM E-score": -0.242}
{"sequence": "CTCGGTGA", "PBM E-score": -0.0979}
{"sequence": "ATGATAGA", "PBM E-score": 0.0317}
{"sequence": "GAGAGATA", "PBM E-score": -0.222}
{"sequence": "CCTACAAG", "PBM E-score": -0.0213}
{"sequence": "CGACTCTA", "PBM E-score": -0.195}
{"sequence": "ACCAAACA", "PBM E-score": 0.275}
{"sequence": "CCCTGACC", "PBM E-score": 0.275}
{"sequence": "CACCACAG", "PBM E-score": 0.112}
{"sequence": "ACAGCCCC", "PBM E-score": -0.0636}
{"sequence": "AAGGCTTC", "PBM E-score": -0.29}
{"sequence": "CTCCCGAC", "PBM E-score": -0.0105}
{"sequence": "GCGCAGAC", "PBM E-score": 0.0155}
{"sequence": "CCAGAAGA", "PBM E-score": -0.0769}
{"sequence": "CCTTTCAA", "PBM E-score": 0.0123}
{"sequence": "ACGCGATG", "PBM E-score": -0.0639}
{"sequence": "CGGTTCAG", "PBM E-score": -0.152}
{"sequence": "CAGAAATG", "PBM E-score": 0.0534}
